Assay results from PubChem BioAssay AID1346428 (National Center for Advancing Translational Sciences (NCATS), 2018).
In all, about 48,000 compounds went through this assay and about 1,200 (2.5%) were called active. Another 2% or so got no clear call; they are omitted.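 Rule for the calls: active = activation of at least 60% and not above a set upper limit (about 1 call in 100 departs from these limits); inconclusive = activation of 40% to 60%, or above that upper limit; inactive = activation under 40%.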 The list shows a part of the results.

Target: Probable G-protein coupled receptor 32 (Homo sapiens) (UniProt O75388)
Sequence of UniProt O75388 (O75388 whole entry, looked up): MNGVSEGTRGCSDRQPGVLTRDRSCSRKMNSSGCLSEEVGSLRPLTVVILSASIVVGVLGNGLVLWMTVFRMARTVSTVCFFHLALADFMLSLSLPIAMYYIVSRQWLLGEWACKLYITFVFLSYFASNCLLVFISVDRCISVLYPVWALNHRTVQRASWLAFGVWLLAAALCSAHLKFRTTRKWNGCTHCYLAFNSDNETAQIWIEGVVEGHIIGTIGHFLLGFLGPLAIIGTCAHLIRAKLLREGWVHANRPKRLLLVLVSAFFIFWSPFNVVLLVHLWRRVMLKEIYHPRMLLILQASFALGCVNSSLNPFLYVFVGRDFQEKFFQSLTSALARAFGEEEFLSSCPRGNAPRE
Assay: qHTS for Agonists of Human Resolvin D1 Receptor DRV1; note: 0% is about no effect
Details: CHO-K1 GPR32 beta-arrestin PathHunter luminescence, 90 min; at 76.9 µM; hits give high values; zero percent set by DMSO-only wells
Method in brief: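 Readings come from a cell-based beta-arrestin complementation format: CHO-K1 GPR32 stable cells (2,500/well) treated 90 min with compounds, then beta-Gal substrate added for 1 h before chemiluminescence imaging.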

SMILES | activation
CCOc1ccc(NC(=O)c2cn(C3CCCCC3)c(=O)c3c2c2ccccc2n3C)cc1 | inactive: -1.21%
CCOc1ccc(C(=O)N(Cc2nc(-c3cccc(C)c3)no2)C(C)C)cc1 | inactive: -14%
Cn1c(=O)c2c(nc(NCCc3ccccc3)n2Cc2ccccc2Br)n(C)c1=O | inactive: -1.82%
COc1ccc(-c2nc(CN3CCC(C(=O)NCc4ccc(C)cc4)CC3)c(C)o2)cc1OC | inactive: 36.6%
CCOc1ccc(CNC(=O)CCCn2c(=O)c3cccn3c3ccccc32)cc1 | inactive: -13.2%
CC(=O)OCC(=O)[C@@]1(O)[C@H](OC(C)=O)C[C@H]2[C@@H]3CCC4=CC(=O)C=C[C@]4(C)[C@@]3(F)[C@@H](O)C[C@@]21C | inactive: 11.8%
COc1ccccc1CNc1ncnc2onc(-c3ccc(F)cc3)c12 | inactive: 9.04%
CCOc1ccccc1Nc1nc2ccccc2nc1NS(=O)(=O)c1ccc(Cl)cc1 | active: 67.1%
COc1ccc(C(=O)n2nc(-c3cccnc3)nc2NCc2ccccc2)cc1OC | inactive: -7.34%
COc1ccc(CCNC(=O)C(=O)NCC(c2cccs2)S(=O)(=O)c2cccs2)cc1 (configuration not stated) | inactive: 33.5%
CC(=O)N1CCCc2cc(S(=O)(=O)N3CCC(C(=O)Nc4c(C)cccc4C)CC3)ccc21 | inactive: -2.78%
COc1cccc(-c2nc(SCC(=O)NCc3ccco3)c3c(=O)n(C)c(=O)n(C)c3n2)c1 | inactive: 19.6%
CC1CCN(C(=O)Cn2cc(SCC(=O)Nc3ccccc3)c3ccccc32)CC1 | inactive: -11%
COc1ccc(Cn2c(=O)n(-c3ccc(OC)cc3)c(=O)c3c2c2cc(OC)ccc2n3C)cc1 | inactive: -1.89%
CCOC(=O)c1noc2ncnc(N3CCN(c4cccc(C(F)(F)F)c4)CC3)c12 | inactive: -29.4%
CCN(CC)S(=O)(=O)c1ccc2c(c1)c(=O)c(C(=O)NCc1ccccc1Cl)cn2C | inactive: 27.3%
COc1ccc(-c2cc(C)no2)cc1S(=O)(=O)NCc1ccco1 | inactive: -11.4%
O=C(CSc1c2c(nc3cc(Cl)ccc13)CCCC2)N1CCN(c2ccccc2)CC1 | inactive: -34.7%
COc1ccc(-n2c(SCc3ccccc3F)nc3c([nH]c4ccccc43)c2=O)cc1OC | inactive: -6.08%
COc1cc(NC(=O)c2c3c(nc4ccccc24)C(=O)N(C2CCCCC2)C3)cc(OC)c1 | inactive: -12.9%
CCOC(=O)c1c(-c2ccc(C)cc2)csc1NC(=O)c1cc(=O)c2cc(C)cc(C)c2o1 | inactive: -4.81%
CCOc1ccc(-c2nonc2NC(=O)c2oc3ccc(C)cc3c2C)cc1OCC | inactive: -5.91%
